# The supplement of paper PMC8728848
# The list shows a part of the results.
# Legend:
# Assay in all cases: glycan array binding signal (z-score within array); higher = stronger binding
# Conditions in all cases: glycan notation: IUPAC condensed, linker removed
# [1] = target: GlcNAc(b1-3)Gal(b1-4)GlcNAc(b1-3)Gal(b1-4)GlcNAc(b1-3)GalNAc
# How it was run: (§1)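 The binding signal is a Z-score computed within each array and averaged over linkers. Arrays of the same protein sequence at different concentrations or buffers were also averaged together. Data originate from 3228 arrays in the Consortium for Functional Glycomics database, kept only where the protein sequence was available.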
# [2] = target: GlcNAc(b1-3)Gal(b1-4)GlcNAc(b1-3)GalNAc
# How it was run: as §1
# [3] = target: GlcNAc(b1-3)Gal(b1-4)GlcNAc(b1-3)[GlcNAc(b1-3)Gal(b1-4)GlcNAc(b1-3)]GalNAc
# How it was run: as §1
# [4] = target: GlcNAc(b1-3)Gal(b1-4)GlcNAc(b1-6)[Gal(b1-3)]GalNAc
# How it was run: as §1
# [5] = target: GlcNAc(b1-3)Gal(b1-4)GlcNAc(b1-6)[GlcNAc(b1-3)Gal(b1-3)]GalNAc
# How it was run: as §1
# [6] = target: GlcNAc(b1-3)Gal(b1-4)GlcNAc(b1-6)[GlcNAc(b1-3)]Gal(b1-4)GlcNAc
# How it was run: as §1
# GlcNAc(b1-3)GalNAc = target: GlcNAc(b1-3)GalNAc
# How it was run: as §1
# GlcNAc(b1-3)Man = target: GlcNAc(b1-3)Man
# How it was run: as §1
# [7] = target: GlcNAc(b1-3)[GlcNAc(b1-4)][GlcNAc(b1-6)]GlcNAc
# How it was run: as §1
# [8] = target: GlcNAc(b1-3)[GlcNAc(b1-6)]Gal(b1-4)GlcNAc
# How it was run: as §1
# [9] = target: GlcNAc(b1-3)[GlcNAc(b1-6)]GalNAc
# How it was run: as §1
# [10] = target: GlcNAc(b1-4)Gal(b1-4)GlcNAc
# How it was run: as §1
# GlcNAc(b1-4)GlcNAc = target: GlcNAc(b1-4)GlcNAc
# How it was run: as §1
# [11] = target: GlcNAc(b1-4)GlcNAc(b1-4)GlcNAc
# How it was run: as §1
# [12] = target: GlcNAc(b1-4)GlcNAc(b1-4)GlcNAc(b1-4)GlcNAc(b1-4)GlcNAc
# How it was run: as §1
# [13] = target: GlcNAc(b1-4)GlcNAc(b1-4)GlcNAc(b1-4)GlcNAc(b1-4)GlcNAc(b1-4)GlcNAc
# How it was run: as §1
# [14] = target: GlcNAc(b1-4)[GlcNAc(b1-6)]GalNAc
# How it was run: as §1
# [15] = target: GlcNAc(b1-6)Gal(b1-4)GlcNAc
# How it was run: as §1
# GlcNAc(b1-6)GalNAc = target: GlcNAc(b1-6)GalNAc
# How it was run: as §1
# [16] = target: GlcNAc6S(b1-3)Gal(b1-4)GlcNAc
# How it was run: as §1
# Kdn(a2-3)Gal(b1-3)GalNAc = target: Kdn(a2-3)Gal(b1-3)GalNAc
# How it was run: as §1
# Kdn(a2-3)Gal(b1-3)GlcNAc = target: Kdn(a2-3)Gal(b1-3)GlcNAc
# How it was run: as §1
# Kdn(a2-3)Gal(b1-4)Glc = target: Kdn(a2-3)Gal(b1-4)Glc
# How it was run: as §1
# Kdn(a2-3)Gal(b1-4)GlcNAc = target: Kdn(a2-3)Gal(b1-4)GlcNAc
# How it was run: as §1
# [17] = target: Kdn(a2-3)Gal(b1-4)[Fuc(a1-3)]GlcNAc
# How it was run: as §1
# Kdn(a2-6)Gal(b1-4)GlcNAc = target: Kdn(a2-6)Gal(b1-4)GlcNAc
# How it was run: as §1
# [18] = target: Man(a1-2)Man(a1-2)Man(a1-3)Man
# How it was run: as §1
# [19] = target: Man(a1-2)Man(a1-2)Man(a1-6)[Man(a1-3)]Man
# How it was run: as §1
# Man(a1-2)Man(a1-3)Man = target: Man(a1-2)Man(a1-3)Man
# How it was run: as §1
# [20] = target: Man(a1-2)Man(a1-3)[Man(a1-2)Man(a1-6)]Man
# How it was run: as §1
# [21] = target: Man(a1-2)Man(a1-3)[Man(a1-2)Man(a1-6)]Man(a1-6)[Man(a1-2)Man(a1-2)Man(a1-3)]Man
# How it was run: as §1
# [22] = target: Man(a1-2)Man(a1-3)[Man(a1-2)Man(a1-6)]Man(a1-6)[Man(a1-2)Man(a1-2)Man(a1-3)]Man(b1-4)GlcNAc(b1-4)GlcNAc
# How it was run: as §1
# [23] = target: Man(a1-2)Man(a1-3)[Man(a1-6)]Man(a1-6)[Man(a1-2)Man(a1-3)]Man(b1-4)GlcNAc(b1-4)GlcNAc
# How it was run: as §1
# [24] = target: Man(a1-2)Man(a1-6)[Man(a1-3)]Man(a1-6)[Man(a1-2)Man(a1-2)Man(a1-3)]Man
# How it was run: as §1
# [25] = target: Man(a1-2)Man(a1-6)[Man(a1-3)]Man(a1-6)[Man(a1-2)Man(a1-2)Man(a1-3)]Man(b1-4)GlcNAc(b1-4)GlcNAc
# How it was run: as §1
# Man(a1-3)[Man(a1-6)]Man = target: Man(a1-3)[Man(a1-6)]Man
# How it was run: as §1
# [26] = target: Man(a1-3)[Man(a1-6)]Man(a1-6)[Man(a1-2)Man(a1-3)]Man(b1-4)GlcNAc(b1-4)GlcNAc
# How it was run: as §1
# [27] = target: Man(a1-3)[Man(a1-6)]Man(a1-6)[Man(a1-3)]Man
# How it was run: as §1
# [28] = target: Man(a1-3)[Man(a1-6)]Man(a1-6)[Man(a1-3)]Man(b1-4)GlcNAc(b1-4)GlcNAc
# How it was run: as §1
# [29] = target: Man(a1-3)[Man(a1-6)]Man(b1-4)GlcNAc(b1-4)GlcNAc
# How it was run: as §1
# [30] = target: Man(a1-3)[Man(a1-6)]Man(b1-4)GlcNAc(b1-4)[Fuc(a1-6)]GlcNAc
# How it was run: as §1
# Man(a1-6)Man = target: Man(a1-6)Man
# How it was run: as §1
# Man(b1-4)GlcNAc = target: Man(b1-4)GlcNAc
# How it was run: as §1
# MurNAc(b1-4)GlcNAc = target: MurNAc(b1-4)GlcNAc
# How it was run: as §1
# Neu5Ac(a2-3)Gal = target: Neu5Ac(a2-3)Gal
# How it was run: as §1
binder,measurement,setting,value
LngA (Escherichia coli) (protein) MLSVYNRTQKFKAEARKKIAKYHELRKQRGMSLLEVIIVLGIIGTIAAGVVILAQRAFDSRAVTDLVTNTNTVRVRMKDAYQRDGKYPDFVDPLSLTANTIKTDTSGIPAAQLVQLGKITPDEVRNNISGDFIAIGGALTSNGAQVKKGFAIELNGLSQEQCRSILGQVGNNWEYVAIGTSASGSYAMTATGVDMSVAASTTVLRSLGNNGQTTLTADKILSTCTAQVNSITLGSR,glycan array binding signal (z-score),[1],-0.215
same,glycan array binding signal (z-score),[2],-0.422
same,glycan array binding signal (z-score),[3],-0.298
same,glycan array binding signal (z-score),[4],-0.006
same,glycan array binding signal (z-score),[5],-0.435
same,glycan array binding signal (z-score),[6],-0.495
same,glycan array binding signal (z-score),GlcNAc(b1-3)GalNAc,-0.269
same,glycan array binding signal (z-score),GlcNAc(b1-3)Man,-0.148
same,glycan array binding signal (z-score),[7],-0.366
same,glycan array binding signal (z-score),[8],-0.527
same,glycan array binding signal (z-score),[9],-0.436
same,glycan array binding signal (z-score),[10],-0.526
same,glycan array binding signal (z-score),GlcNAc(b1-4)GlcNAc,-0.47
same,glycan array binding signal (z-score),[11],-0.387
same,glycan array binding signal (z-score),[12],-0.257
same,glycan array binding signal (z-score),[13],0.247
same,glycan array binding signal (z-score),[14],-0.365
same,glycan array binding signal (z-score),[15],-0.431
same,glycan array binding signal (z-score),GlcNAc(b1-6)GalNAc,-0.392
same,glycan array binding signal (z-score),[16],-0.464
same,glycan array binding signal (z-score),Kdn(a2-3)Gal(b1-3)GalNAc,-0.202
same,glycan array binding signal (z-score),Kdn(a2-3)Gal(b1-3)GlcNAc,-0.498
same,glycan array binding signal (z-score),Kdn(a2-3)Gal(b1-4)Glc,-0.315
same,glycan array binding signal (z-score),Kdn(a2-3)Gal(b1-4)GlcNAc,-0.197
same,glycan array binding signal (z-score),[17],-0.229
same,glycan array binding signal (z-score),Kdn(a2-6)Gal(b1-4)GlcNAc,-0.452
same,glycan array binding signal (z-score),[18],-0.556
same,glycan array binding signal (z-score),[19],-0.413
same,glycan array binding signal (z-score),Man(a1-2)Man(a1-3)Man,-0.362
same,glycan array binding signal (z-score),[20],-0.54
same,glycan array binding signal (z-score),[21],-0.506
same,glycan array binding signal (z-score),[22],0.647
same,glycan array binding signal (z-score),[23],-0.432
same,glycan array binding signal (z-score),[24],-0.41
same,glycan array binding signal (z-score),[25],-0.356
same,glycan array binding signal (z-score),Man(a1-3)[Man(a1-6)]Man,-0.411
same,glycan array binding signal (z-score),[26],-0.239
same,glycan array binding signal (z-score),[27],0.228
same,glycan array binding signal (z-score),[28],0.079
same,glycan array binding signal (z-score),[29],-0.323
same,glycan array binding signal (z-score),[30],-0.579
same,glycan array binding signal (z-score),Man(a1-6)Man,3.82
same,glycan array binding signal (z-score),Man(b1-4)GlcNAc,-0.127
same,glycan array binding signal (z-score),MurNAc(b1-4)GlcNAc,-0.222
same,glycan array binding signal (z-score),Neu5Ac(a2-3)Gal,0.012
